Source: PubChem BioAssay AID652104 (National Center for Advancing Translational Sciences (NCATS), 2013)
The whole screen tested about 410,000 compounds, of which about 7,200 (1.8%) were called active. The inconclusive results got no clear call from the source; some entries with a clear call stand among them for comparison. The call rests on the fitted dose curve; in most records, active means well fitted activation curve with a large enough effect; inconclusive means small, poorly fitted or top-dose-only effect, or another doubt; inactive means no such curve, though single readings can be large or run the other way. No potency is given beside an inconclusive call; the fits are too rough.
Potency means the concentration at half of the fitted maximal effect; tags describe the fitted curve by direction and shape.

Assay: qHTS of TDP-43 Inhibitors; further: nearly all actives have a fitted effect of over 50% in size; on growth rescue (activation): % of control where 0% means no effect
Settings: TDP-43 expressing yeast growth rescue, BacTiter-Glo, 24 h; growth rescue (activation): at 46.1 µM (top of the series) unless noted
Outline: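 Growth rescue of TDP-43-toxic yeast measured as ATP luminescence (BacTiter-Glo). Cells grown to mid-log in raffinose, induced in galactose at OD600=0.02, exposed to compound 24 hr at 30 deg C.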
With CCOC(=O)c1cnc2ccc(C)cc2c1Sc1ccc(F)cc1 the Potency was inconclusive [activator, single point]. With COc1ccc(C2C(C#N)=C(N)N(N(C)C)C3=C2C(=O)CC(C)(C)C3)cc1 (stereo not drawn) the “growth rescue (activation)” value was inactive: -3.87%. For CCCCCCC(=O)N(O)C1CC(=O)N(c2ccc(F)cc2)C1=O (stereo not drawn), the growth rescue (activation) was inconclusive: -92.4% [activator]. With O=C(/C(=N/N=C/c1ccc(O)c(O)c1)c1ccccc1)c1ccccc1 the Potency was inconclusive [activator, single point]. For Cc1ccccc1-c1nc(CS(=O)(=O)CC(=O)NCC(C)c2ccccc2)c(C)o1 (stereo not drawn), the Potency was inconclusive [activator, partial curve, poor fit]. In the case of COC(=O)c1cc2nc(-c3ccc(C)cc3)cc(C(F)(F)F)n2n1, the Potency is reported as inconclusive [activator, full curve, poor fit]. In the case of CCOc1ccccc1N1CCN(C(=O)c2ccc3[nH]c(C)c(C)c3c2)CC1, the Potency is reported as inconclusive [activator, single point]. With CCOC(=O)C1CCCN(/C=C2\SC(=S)N(CC)C2=O)C1 (stereo not drawn) the Potency was inconclusive [activator, partial curve]. With COc1ccc([C@H]2[C@H]3C=CC[C@@H](C)[C@@H]3C(=O)N2Cc2ccccc2)cc1Cl the Potency was inconclusive [activator, single point]. For Cc1cc(F)ccc1S(=O)(=O)NCC(c1ccco1)S(=O)(=O)c1cccs1 (stereo not drawn), the Potency was inconclusive [activator, full curve, poor fit]. With Nc1nnc(SCCOc2ccc(Br)cc2)s1 the Potency was inconclusive [activator, partial curve]. With Cc1nn(-c2ccccc2)nc1C(=O)Nc1ccc2c(c1)OCCO2 the Potency was inconclusive [activator, partial curve]. For COCCCNC(=O)c1oc2c(c1C)-c1nn(Cc3cccc(Cl)c3)cc1CC2, the “growth rescue (activation)” value was inactive: 8.58%. With COCc1cccc(-c2csc(C(O)c3cccc(OC)c3)n2)c1 (stereo not drawn) the Potency was inconclusive [activator, single point]. For COc1ccccc1N1CCN(C(=O)c2nn(-c3ccc(C)cc3)c(=O)n(C)c2=O)CC1, the growth rescue (activation) was inactive: 23.2% [at 9.22 µM]. In the case of CC(=O)c1c(C)nc2nc(-c3ccccc3)nn2c1C, the Potency is reported as inconclusive [activator, single point]. With C/C(=N\Nc1ccc(C(=O)O)cc1)c1ccc2c(c1)Nc1ccccc1S2 the Potency was inconclusive [activator, partial curve]. In the case of CCCCN(CCCC)S(=O)(=O)c1ccc(C(=O)Nc2nnc(COC)o2)cc1, the Potency is reported as active: 12.6 µM. In the case of CSc1ccc(CN2C(=O)C(C)Oc3c(C(C)=O)cccc32)cc1 (stereo not drawn), the Potency is reported as inconclusive [activator, full curve, poor fit]. With CC1CCN(C(=O)c2cccc(S(=O)(=O)N3CCN(c4ccccc4)CC3)c2)CC1 the “growth rescue (activation)” value was inactive: -4.97%. For Cc1cccc(NC(=O)c2ccc(N(Cc3ccccc3)S(C)(=O)=O)cc2)c1, the Potency was inconclusive [activator, full curve, poor fit]. For O=C(CSc1c2c(nc3ccc(Cl)cc13)CCCC2)N1CCN(c2cccc(Cl)c2)CC1, the Potency was active: 15.8 µM. For CCCn1ccc2c(OCC(=O)NCc3ccc(C)cc3)cccc2c1=O, the Potency was inconclusive [activator, partial curve]. For O=C(NNc1nc2ccc(Cl)cc2s1)c1cc(-c2cccs2)nc2ccccc12, the Potency was active: 4.47 µM. In the case of CC(C)C(=O)N1CCN(c2ccccc2NC(=O)c2ccc(Br)o2)CC1, the Potency is reported as inconclusive [activator, single point]. In the case of O=C(CSc1nc2ccccc2o1)Nc1ccccc1N1CCCCCC1, the Potency is reported as inconclusive [activator, partial curve]. For CC1CCCCC1NC(=O)COn1nnc2ccc(Cl)cc21 (stereo not drawn), the Potency was inconclusive [activator, single point]. In the case of O=C(/C=C/c1ccccc1)NC(=S)Nc1ncccn1, the Potency is reported as inconclusive [activator, partial curve]. In the case of CCOc1nc(C)ccc1-c1noc(C)n1, the “growth rescue (activation)” value is reported as inactive: 3.91%. In the case of COc1ccccc1C(NC(=O)C1CCN(CCOc2ccc(Cl)cc2)CC1)c1ccccn1 (stereo not drawn), the Potency is reported as inconclusive [activator, full curve, poor fit]. For COc1ccc2oc(C(=O)NN3C(C)CCCC3C)c(C)c2c1 (stereo not drawn), the Potency was inconclusive [activator, partial curve]. In the case of COc1ccccc1CNC(=O)C1CCCN(S(=O)(=O)c2ccc3c(c2)CCCN3C(C)=O)C1 (stereo not drawn), the “growth rescue (activation)” value is reported as inactive: -3.96%. For O=C(Cn1ncc2c1-c1ccccc1OC2)N1CCN(c2ccccc2F)CC1, the “growth rescue (activation)” value was inactive: 23.4%. In the case of Cc1ccc(C)c(NC(=O)c2sc(Cl)nc2C)c1, the Potency is reported as inconclusive [activator, partial curve]. With COc1cc(NC(=O)CC2C(=O)N(c3ccc(Cl)cc3)C(=O)N2Cc2cccs2)cc(OC)c1 (stereo not drawn) the “growth rescue (activation)” value was inactive: 10.6%. For CCn1c2c(c3cc(Br)ccc31)CCC/C2=N\O, the Potency was inconclusive [activator, partial curve]. For COc1cc(-c2nnn(CC(=O)Nc3ccc(OC(F)(F)F)cc3)n2)cc(OC)c1OC, the “growth rescue (activation)” value was inactive: -0.199%. In the case of CC(=O)Oc1ccc2cc(-c3ccccc3)c(=O)oc2c1, the Potency is reported as inconclusive [activator, full curve]. For COc1ccc(-c2cc(C(=O)O)n(Cc3ccccc3)n2)cc1, the Potency was inconclusive [activator, partial curve, poor fit]. With COc1ccc(NC(=O)CSc2nc(-c3cccs3)cc(C(F)(F)F)n2)cc1OC the growth rescue (activation) was inactive: 22.8% [at 9.22 µM]. In the case of CC1(C(=O)Nc2nnc(SCc3ccccc3)s2)Cc2ccccc2C(=O)O1 (stereo not drawn), the growth rescue (activation) is reported as inconclusive: 38.5% [activator]. In the case of C=CCn1c(Cc2cccs2)nnc1SCC(=O)c1cccc(Br)c1, the Potency is reported as inconclusive [activator, single point]. With CCc1ccccc1NC(=O)c1ccc([N+](=O)[O-])s1 the Potency was inconclusive [activator, single point].
